Measurements as given in PubChem BioAssay AID1240 (Sanford-Burnham Center for Chemical Genomics, 2008).
Hit rate of the full screen: of about 50,000 compounds, about 800 (1.6%) showed an effect of 50% or more. The list shows a part of the results.

target: Bcl-2-like protein 10 (Homo sapiens) (UniProt Q9HD36); test: TR3 peptide-Bcl-B binding displacers, biochemical primary FP assay, phenotype converters (AID 1240); settings: GST-Bcl-B / FITC-TR3 peptide fluorescence polarization; stronger effect = higher value; compound at 3.75 mg/L;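 further: 0% = Bcl-B with tracer peptide and DMSO and 100% = tracer peptide lacking Bcl-B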
UniProt Q9HD36, sequence (Q9HD36 whole entry, looked up): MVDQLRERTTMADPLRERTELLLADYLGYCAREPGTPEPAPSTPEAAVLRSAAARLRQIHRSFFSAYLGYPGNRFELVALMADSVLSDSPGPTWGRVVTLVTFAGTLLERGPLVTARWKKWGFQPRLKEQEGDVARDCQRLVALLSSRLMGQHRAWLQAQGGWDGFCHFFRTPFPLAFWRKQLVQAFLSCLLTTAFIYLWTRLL

Row | SMILES | displacement
1 | O=C(NCCCN1CCOCC1)c1ccc(Br)cc1 | 3.7%
2 | CC1CC(Nc2ccccc2)c2ccccc2N1C(=O)c1ccccc1[N+](=O)[O-] (stereo not given) | -1.1%
3 | O=C(CSc1nc2ccccc2s1)Nc1ccc(/C=C/c2ccccc2)cc1 | -9.6%
4 | Cc1ccc(C(=O)NNC(=O)c2ccc(O)cc2O)cc1 | -23.6%
5 | COc1ccc(CCNC(=O)c2c(Cl)ccc(Cl)c2OC)cc1OC | 57%
6 | COc1ccc(Br)cc1/C=C/C(=O)Nc1cccc(-c2nc3ncccc3o2)c1C | 95.3%
7 | COc1ccccc1CNCc1cccc(Cl)c1 | -23.6%
8 | CCOc1cc(/C=N/NC(=O)C(=O)N2CCCC2)ccc1O | 6.3%
9 | Cc1cc(C(=O)NCc2ccc(S(N)(=O)=O)cc2)ccc1[N+](=O)[O-] | 3%
10 | Cc1onc(-c2ccccc2Cl)c1-c1nc(-c2ccncc2)no1 | 36.3%
11 | O=C1C(=O)N(CC2CCCO2)C(c2ccccc2Cl)/C1=C(/O)c1ccccc1 (stereo not given) | -11.8%
12 | S=C(NCc1ccc2c(c1)OCO2)Nc1ccccc1 | -6%
13 | Brc1ccc(-c2nc(-c3ccccn3)no2)cc1 | -11.7%
14 | CCOc1ccc(N(CC(=O)NC(C)C)S(=O)(=O)c2ccc(SC)cc2)cc1 | 25.9%
15 | Cc1cccc(N2C(=O)S/C(=C/c3cccc([N+](=O)[O-])c3)C2=O)c1 | 14.3%
16 | CCOc1ccc(NC(=O)c2cccc3c(Br)cccc23)cc1 | -7.6%
17 | CCOc1ccc2oc(C)c(C(=O)OCCOC)c2c1 | 9.3%
18 | COc1ccc(-c2nn(CN3CCOCC3)c(=S)n2-c2ccccc2)cc1 | 9.1%
19 | COc1ccc(C(=O)CN2CCN(C(=O)C3CC3)CC2)cc1 | 8.5%
20 | COc1ccc(C(=O)Oc2cccc3cccnc23)cc1OC | 1.9%
21 | Cc1ccc(S(=O)(=O)N(Cc2ccccc2)c2ccccc2C(=O)N2CCOCC2)cc1 | 11.6%
22 | O=C(c1ccccc1SCc1ccc(F)cc1)N1CCOCC1 | -9.3%

Row | SMILES | displacement
23 | COc1ccc(Cl)cc1C(=O)N1CCN(c2cccc(C)c2C)CC1 | 1.6%
24 | C/C(=N\NC(=O)CCC(=O)O)c1c(-c2ccccc2)c2cc(Cl)ccc2[nH]c1=O | -3.1%
25 | COc1ccc(/C(C)=N/N2C(=O)c3ccccc3C2=O)c(OC)c1 | -8.2%
26 | O=C(NC(NC(=O)c1ccco1)c1ccc(Br)cc1)c1ccco1 | 1.7%
27 | CCC(=O)N/C(N)=N\c1nc(C)c2cc(C)cc(C)c2n1 | 14.6%
28 | O=C(NNc1ccc(F)cc1)C(O)(c1ccccc1)c1ccccc1 | 3.2%
29 | CS(=O)(=O)N(CC(=O)NCc1cccnc1)c1ccc(Cl)cc1 | 12.3%
30 | CCCc1nc2ccccc2n1CC(O)COc1ccc(C)cc1 (stereo not given) | -35.6%
31 | O=S1(=O)CCC(NC(=S)SCc2ccccc2Br)C1 (stereo not given) | 9.2%
32 | S=C1NC2=C(C(c3ccc(Cl)cc3Cl)N1)N1CCC2CC1 (stereo not given) | 4.2%
33 | COc1cc(/C=C2\SC(N)=NC2=O)cc(I)c1OCc1ccc(Cl)cc1Cl | 1.1%
34 | CC(=O)Nc1ccc(S(=O)(=O)/N=C2/NC(=O)/C(=C\c3ccco3)S2)cc1 | 19.2%
35 | O=c1oc2cc(OCCO)ccc2c2c1CCCC2 | -5.8%
36 | CN1C(=O)NC(=O)/C(=C/c2ccc(-c3ccc(Cl)cc3)o2)C1=O | 37%
37 | O=C(O)c1cccc(CP(=O)(c2ccccc2)c2ccccc2)c1 | 3.3%
38 | Oc1ccc2ccccc2c1C=NN1CCN(Cc2ccccc2Cl)CC1 | -13.4%
39 | O=C(COc1ccc([N+](=O)[O-])cc1)Nc1ccc(NC(=O)c2cccc(Cl)c2)cc1 | -16.4%
40 | CC(=O)N1CCN(CC(C)(C)NS(=O)(=O)c2ccccc2)CC1 | 8.5%
41 | CC(=O)c1cccc(Nc2cc(C)nc3ncnn23)c1 | 9.1%
42 | O=C1C2C(C(=O)N1c1ccccc1)C1(c3ccccc3)C(=O)C2(c2ccccc2)C(c2ccccc2)=C1c1ccccc1 (stereo not given) | 1.8%
43 | CCc1ccc(NC(=O)CN2C(=O)c3ccccc3C2=O)cc1 | 10.1%
44 | COc1ccc(/C=C2\CCOC2=O)cc1 | 0.5%

Row | SMILES | displacement
45 | Cc1n[nH]c(=S)n(/N=C/c2ccc3c(c2)OCO3)c1=O | 7.4%
46 | COc1ccc(NC(=O)/C=C/c2ccc3c(c2)OCO3)c([N+](=O)[O-])c1 | 13.5%
47 | O=C1CC(Sc2ncn[nH]2)C(=O)N1c1ccc(I)cc1 (stereo not given) | -7.2%
48 | COc1cc(OC)cc(C(=O)Nc2sc3c(c2C(N)=O)CCC(C)C3)c1 (stereo not given) | 22.7%
49 | COc1ccccc1/C=C(/NC(=O)c1ccccc1)c1nc2ccccc2o1 | 1.2%
50 | CCOc1ccc2c(c1)-c1c(ssc1=S)C(C)(C)N2C(=O)CN1C(=O)c2ccccc2C1=O | -0.9%
51 | O=C(Nc1nccs1)c1ccc2c(c1)C(=O)N(C1CCCCC1)C2=O | -0.3%
52 | COc1ccc(NC(=S)NC(=O)c2ccc(Br)cc2)cc1 | 9.5%
53 | N/C(=N\OC(=O)c1cccc(Cl)c1)c1ccccc1 | -11.3%
54 | O=C(NCCOCc1ccccc1)c1ccccc1Cl | -19.3%
55 | CCN(CC)c1ccc(NC(=O)Cc2ccc(Cl)cc2)cc1 | 16.6%
56 | O=C(CSc1nc2ccccc2s1)CSc1nc2ccccc2s1 | -8.4%
57 | CCOC(=O)c1[nH]c(=O)[nH]c1CSC1=NC(=O)C(c2ccccc2)C(=O)N1 (stereo not given) | -0.1%
58 | O=C(O)CCC(=O)N1N=C(c2cccs2)CC1c1cccc([N+](=O)[O-])c1 (stereo not given) | 10.7%
59 | O=C1N/C(=N/N=C/c2ccccc2O)SC1Cc1cc(Cl)ccc1Cl (stereo not given) | 5.6%
60 | COc1ccc(/C=N/Nc2nc(Nc3ccccc3)nc(N3CCOCC3)n2)cc1Br | 0.3%
61 | O=C(Nc1ccc(F)cc1F)c1cccc(F)c1 | -3.5%
62 | COCCCNC(=O)c1ccccc1C | 2.1%
63 | COc1cc(CN2CCN(S(C)(=O)=O)CC2)cc(OC)c1O | -5.1%
64 | COc1cc(/C=C(\C#N)c2nc3ccccc3[nH]2)cc(Cl)c1O | -102%
65 | CC(C)NNC(=O)c1nc(-c2ccccc2)cc(-c2ccccc2)n1 | -4.9%
66 | CCC(=O)CC(c1ccccc1)C1C(=O)NC(=O)NC1=O (stereo not given) | 3.4%

Row | SMILES | displacement
67 | Cc1ccc(S(=O)(=O)NN2C(=O)/C(=C/c3cccc4ccccc34)SC2=S)cc1 | 12.4%
68 | COc1cc(NC(=O)c2ccc(OC)c(OC)c2)ccc1NC(=O)c1ccco1 | 10.5%
69 | CCOc1ccc(C(=O)Nc2cc(C(F)(F)F)ccc2Cl)cc1Br | -10.7%
70 | Cc1cc(C(=O)O)ccc1-n1c(C)ccc1C | 81.4%
71 | Cc1ccc(C2/C(=C(\O)c3ccc([N+](=O)[O-])cc3)C(=O)C(=O)N2CCCCCC(=O)O)cc1 (stereo not given) | -3.5%
72 | O=C(N/N=C\c1ccccc1C(F)(F)F)c1n[nH]c2c1CCCC2 | -9.9%
73 | Cc1ccc(C)c(NS(=O)(=O)c2ccc3c(c2)C(=NO)c2cc(S(=O)(=O)Nc4cc(C)ccc4C)ccc2-3)c1 | 5.4%
74 | COc1cccc(C2Nc3ccccc3NC3=C2C(=O)CC(c2cccs2)C3)c1OC (stereo not given) | 5.9%
75 | CCOc1ccc2nc(SCC(=O)Nc3cc(Cl)ccc3C)sc2c1 | 7.2%
76 | O=C(COc1ccccc1)Nc1cccc(NC(=O)c2ccc(Cl)cc2Cl)c1 | -0.3%
77 | O=C1c2ccccc2/C(=N/Nc2ccc([N+](=O)[O-])cc2)C1c1cc(Br)ccc1[N+](=O)[O-] (stereo not given) | 2.9%
78 | OCc1nc2ccccc2n1CCOc1ccccc1 | -3.5%
79 | Cc1ccc(CNC(=O)C(=O)NCc2ccco2)cc1 | -3.9%
80 | COC(=O)c1cc(-c2cccc([N+](=O)[O-])c2)nc2ccccc12 | 4.3%
81 | O=C(NCc1ccncc1)c1ccc(I)cc1 | 10.7%
82 | Cc1ccc(OCC(=O)Nc2ccc3oc(-c4cccnc4)nc3c2)cc1C | 12.6%
83 | COc1ccc(NS(=O)(=O)c2ccc(OC)c(OC)c2)cc1 | 11.8%
84 | CCOC(=O)C1=C(C)N=c2s/c(=C\c3cc(OC)c(OC)cc3[N+](=O)[O-])c(=O)n2C1c1cccc(OC)c1 (stereo not given) | -8.4%
85 | O=C(NCc1cccnc1)c1cccc(S(=O)(=O)N2CCCCC2)c1 | 2.2%
86 | CCCNC(=O)c1sc2ccccc2c1Cl | -1.5%
87 | Cc1ccccc1N1CC(C(=O)OCC(=O)c2ccc(Br)cc2)CC1=O (stereo not given) | 2.7%
88 | CC(C)(C)CC(C)(C)NC(=O)CSc1nc2ccccc2o1 | 3.4%

Row | SMILES | displacement
89 | COc1ccc2oc(=O)c(C(N)=O)cc2c1 | 12.8%
90 | Cc1nn(CC(=O)Nc2ccccc2)c(=O)c2ccccc12 | -5.1%
91 | CNC(=O)c1c(-c2ccccc2Cl)noc1C | -4.1%
92 | CC(=O)c1cccc(NC(=O)CN2CCOCC2)c1 | 12.1%
93 | CCC(=O)Oc1ccc2c(C)cc(=O)oc2c1C | -7.8%
94 | O=C(/C=C/c1cccc2ccccc12)c1ccc(NC(=O)c2cccs2)cc1 | -2.2%
95 | C=CCOc1ccc(/C=C2\SC(=Nc3ccccc3)NC2=O)cc1OC | -4.9%
96 | CCCCCC(=O)NNS(=O)(=O)c1ccc(Cl)cc1 | -7.8%
97 | O=C(N/N=C/C=C/c1ccccc1[N+](=O)[O-])c1cc(-c2ccccc2)n[nH]1 | 28%
98 | Cc1ccc(/C(O)=C2\C(=O)C(=O)N(c3ccc(O)cc3)C2c2ccc(F)cc2)cc1 (stereo not given) | 11.1%
99 | COC(=O)CN(c1ccc(C)cc1)S(=O)(=O)c1ccc(SC)cc1 | 10.9%
100 | Cc1onc(-c2ccccc2Cl)c1C(=O)N1CCc2ccccc2C1 | 8%
101 | Cc1ccc(S(=O)(=O)c2ccc(Sc3ccc(Cl)cc3)cc2)cc1 | 4.7%
102 | O=C(NCCN1CCNCC1)C(=O)Nc1ccc(Br)cc1 | 10.9%
103 | Cc1c(Cl)cccc1NC(=O)/C(C#N)=C/c1cccc(O)c1 | -12.3%
104 | O=C(O)c1ccc(N2C(=O)C3C4c5ccccc5C(c5ccccc54)C3C2=O)cc1Cl (stereo not given) | 4.7%
105 | COc1cccc(-n2c(/C=C/c3c(C)n(C)c4ccccc34)nc3ccccc3c2=O)c1 | 2.4%
106 | CCOc1c(Br)cc(C2C3=C(CC(C)(C)CC3=O)OC3=C2C(=O)CC(C)(C)C3)cc1OC | -4.2%
107 | Clc1ccc(C=NN2CCN(Cc3ccccc3)CC2)c(Cl)c1 | 18.6%
108 | COc1ccccc1CNC(=O)CN(c1ccc(Oc2ccccc2)cc1)S(C)(=O)=O | -6.1%
109 | Cc1ccc2c(c1)NC(c1ccc(F)cc1)C1=C(CC(C)(C)CC1=O)N2 (stereo not given) | 17.8%
110 | Cc1nnc(Nc2ccc3c(c2)nc(C)n3Cc2ccccc2)c2ccccc12 | 3.5%
